Reference: article PMC7659723
No constants are given. Whether binding was seen depends on the method and setting. For some of these results: In cells and extracts the contact can be indirect. Some entries that bind do so weakly or less than the wild type. For some of these results: Sequences can lack the tags named with a protein.

T1: Pex3 cytosolic domain (40–441), yeast two-hybrid bait (S. cerevisiae) (UniProt P28795)
T1 sequence: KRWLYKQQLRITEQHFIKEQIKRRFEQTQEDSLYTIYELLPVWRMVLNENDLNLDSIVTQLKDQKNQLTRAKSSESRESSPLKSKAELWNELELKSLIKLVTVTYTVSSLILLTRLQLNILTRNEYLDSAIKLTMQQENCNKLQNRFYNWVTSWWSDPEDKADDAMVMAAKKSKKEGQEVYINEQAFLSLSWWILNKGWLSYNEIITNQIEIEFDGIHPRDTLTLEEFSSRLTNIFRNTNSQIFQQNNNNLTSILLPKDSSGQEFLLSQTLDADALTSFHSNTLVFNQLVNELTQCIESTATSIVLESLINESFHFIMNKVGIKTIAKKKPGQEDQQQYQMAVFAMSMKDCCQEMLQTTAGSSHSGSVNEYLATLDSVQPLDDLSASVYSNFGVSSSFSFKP

T2: GST-Inp1 (S. cerevisiae) (UniProt Q03694)
T2 sequence: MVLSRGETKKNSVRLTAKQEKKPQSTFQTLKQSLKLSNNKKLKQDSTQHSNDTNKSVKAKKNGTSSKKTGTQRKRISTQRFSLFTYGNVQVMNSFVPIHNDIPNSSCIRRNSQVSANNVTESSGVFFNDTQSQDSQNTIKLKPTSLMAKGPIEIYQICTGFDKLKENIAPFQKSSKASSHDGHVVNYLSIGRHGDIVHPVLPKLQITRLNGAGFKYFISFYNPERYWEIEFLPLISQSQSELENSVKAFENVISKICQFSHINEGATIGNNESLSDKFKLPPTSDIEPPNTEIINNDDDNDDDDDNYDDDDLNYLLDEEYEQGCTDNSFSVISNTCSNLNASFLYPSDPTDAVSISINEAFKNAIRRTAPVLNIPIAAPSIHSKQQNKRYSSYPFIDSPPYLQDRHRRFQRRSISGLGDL

T3: MBP-Inp1 N (1–280) (S. cerevisiae) (UniProt Q03694)
T3 sequence: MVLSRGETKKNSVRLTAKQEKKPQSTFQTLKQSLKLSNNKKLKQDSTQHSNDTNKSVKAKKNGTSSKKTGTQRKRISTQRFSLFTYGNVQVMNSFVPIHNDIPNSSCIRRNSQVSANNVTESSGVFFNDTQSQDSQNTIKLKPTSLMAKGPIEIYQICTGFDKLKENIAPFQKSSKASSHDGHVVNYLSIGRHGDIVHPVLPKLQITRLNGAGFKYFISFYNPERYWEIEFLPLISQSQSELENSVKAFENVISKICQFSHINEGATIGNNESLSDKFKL

T4: MBP-Inp1 C (281–420) (S. cerevisiae) (UniProt Q03694)
T4 sequence: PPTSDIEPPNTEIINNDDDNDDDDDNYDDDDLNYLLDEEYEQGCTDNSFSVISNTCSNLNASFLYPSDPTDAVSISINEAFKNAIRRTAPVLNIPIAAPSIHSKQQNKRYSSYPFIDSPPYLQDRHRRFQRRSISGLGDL

T5: GST-Pex19 (S. cerevisiae) (UniProt Q07418)
T5 sequence: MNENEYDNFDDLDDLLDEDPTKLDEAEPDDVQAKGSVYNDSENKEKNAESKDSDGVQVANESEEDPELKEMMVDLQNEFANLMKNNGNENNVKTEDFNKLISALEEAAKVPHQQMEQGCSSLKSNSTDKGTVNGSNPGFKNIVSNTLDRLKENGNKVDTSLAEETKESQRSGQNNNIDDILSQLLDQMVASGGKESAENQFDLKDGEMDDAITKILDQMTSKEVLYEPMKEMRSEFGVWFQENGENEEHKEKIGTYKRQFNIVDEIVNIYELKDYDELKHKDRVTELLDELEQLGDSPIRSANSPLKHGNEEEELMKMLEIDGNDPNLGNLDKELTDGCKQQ

T6: MBP-Inp1 (S. cerevisiae) (UniProt Q03694)
T6 sequence: T2 sequence

B1: Inp1 fragment 300–378 (smallest yeast two-hybrid hit) (domain or fragment, UniProt Q03694 300-378)
chain: NDDDDDNYDDDDLNYLLDEEYEQGCTDNSFSVISNTCSNLNASFLYPSDPTDAVSISINEAFKNAIRRTAPVLNIPIAA
B2: His-Pex3 (40–441) (domain or fragment, UniProt P28795 40-441)
chain: T1 sequence

Legend:
[1] = molecular target: T1, Pex3 cytosolic domain (40–441), yeast two-hybrid bait (S. cerevisiae); experiment: two-hybrid; genome-wide yeast two-hybrid screen with the Pex3 cytosolic domain (40–441) as bait
GST-Inp1 (S. cerevisiae) = molecular target: T2, GST-Inp1 (S. cerevisiae); experiment: pull-down; GST-Inp1 and mutants bound to glutathione Sepharose, incubated 2 h at 4°C with lysate of E. coli expressing His-Pex3; washes in PBS + 0.05% Igepal CA-630, one with 500 mM KCl; SDS-PAGE, Coomassie staining; only the target purified
[2] = molecular target: T3, MBP-Inp1 N (1–280) (S. cerevisiae); experiment: pull-down; MBP-Inp1 N or C bound to amylose beads, incubated 2 h at 4°C with total lysate of E. coli expressing His-Pex3 (40–441); washes in PBS + 0.05% Igepal CA-630, one with 500 mM KCl; SDS-PAGE, Coomassie staining and Western blotting; only the target purified
[3] = molecular target: T4, MBP-Inp1 C (281–420) (S. cerevisiae); experiment: as above
[4] = molecular target: T4, MBP-Inp1 C (281–420) (S. cerevisiae); experiment: pull-down; unbound fraction of the competition assay (mixed lysates of His-Pex3 and MBP-Inp1 C) incubated 1 h at 4°C with amylose beads; eluted with 10 mM maltose buffer; Coomassie staining and anti-His Western blot
[5] = molecular target: T5, GST-Pex19 (S. cerevisiae); experiment: pull-down; competition: GST-Pex19 immobilised on glutathione Sepharose beads; His-Pex3 lysate premixed 30 min at 4°C with buffer, MBP, MBP-Inp1, MBP-Inp1 N or MBP-Inp1 C lysate, then 2 h at 4°C on the beads; washes incl. 0.5 M KCl; Coomassie staining; only the target purified
MBP-Inp1 (S. cerevisiae) = molecular target: T6, MBP-Inp1 (S. cerevisiae); experiment: pull-down; competition: total lysates with His-Pex3 and MBP-Inp1 mixed and preincubated 30 min at 4°C; binding read from the loss of His-Pex3 on GST-Pex19 beads

Binder | binding [1] | binding (GST-Inp1 (S. cerevisiae)) | binding [2] | binding [3] | binding [4] | binding [5] | binding (MBP-Inp1 (S. cerevisiae))
B1 | binds | – | – | – | – | – | –
B2 | – | binds | no binding | binds | binds | binds | binds
